Hit rate of the full screen: of about 48,000 compounds, about 450 (0.94%) were called active. Not shown: some 19% with an inconclusive outcome. Calls come from the whole dose curve; as a rule, active = well fitted inhibition curve with a large enough effect; inconclusive = small, poorly fitted or top-dose-only effect; inactive = no such curve, though single readings can be large or run the other way. The list shows a part of the results.
assay: Primary qHTS for Identification of Small Molecule Inhibitors of Huntingtin Promoter Activity; conditions: HEK293 HTT promoter firefly luciferase reporter (activity 0% = vehicle and -100% = no light), 24 h; series mostly up to 57.5 µM; activity change, negative = inhibition: at the top concentration; note: nearly all actives have a fitted effect of over 50% in size
Method in brief: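 Quantitative HTS used concentration series of up to 57.5 uM final on HEK293 luciferase reporter cells, 24 h at 37 degrees C. Readout was Dual-Glo firefly luminescence.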

Activity change, negative = inhibition, inactive:
CCC(C(=O)Nc1cc(C)ccc1OC)n1nnc(C(=O)OC)c1C(=O)OC (stereo unspecified) 15.6%, Cc1ccc(C)c(S(=O)(=O)n2nc(C)c(S(=O)(=O)N3CCC(C)CC3)c2C)c1 -3.81%, Cc1ccc(-n2nc3c(N4CCC(C(=O)N(C)Cc5ccccc5)CC4)nnc(C)c3c2C)cc1 -0.199%, CC(=O)Nc1ccc(S(=O)(=O)Nc2nc3n(n2)C(c2ccccc2)C=C(c2ccc(Cl)cc2)N3)cc1 (stereo unspecified) 0.994%, COc1ccccc1CNC(=O)CCC(=O)N1Cc2ccccc2Oc2ncccc21 -7.82%, CN(C)c1ccc(CN(Cc2ccco2)C(=O)c2ccc(F)cc2)cc1 -29.1%, COc1ccc(C2CC(=O)c3cnc4c(-c5ccccc5)c(C)nn4c3C2)c(OC)c1 (stereo unspecified) -5.87%, CCCCNC(=O)CCCn1c(=O)c2ccccc2n(Cc2ccc(Cl)cc2)c1=O -11.8%, COc1ccc2c(c1)c1c(c(=O)n(-c3ccc(OC)c(OC)c3)c(=O)n1Cc1ccc(C)cc1)n2C -7.96%, COc1ccccc1CNC(=O)CCCn1c(=O)c2cccn2c2ccccc21 -9.14%, CC(C)(C)OC(=O)N1CCC(c2c(C(=O)N3CCOCC3)cnn2-c2ccccc2Cl)CC1 2.78%, CCn1c(C(=O)N(C2CC2)C2CC2)cc2c3c(ncn3C)c(Nc3cc(C)n(C)n3)nc21 -11%, COc1ccc(-c2nc(SCC(=O)Nc3cccc(C(C)=O)c3)n[nH]2)cc1 -15%, Fc1ccc(-c2noc3ncnc(N4CCCCC4)c23)cc1 -4.73%, O=C(Cc1ccccc1)Nc1cc(-c2nc3cc(Cl)ccc3o2)ccc1Cl -5.46%, COc1ccc(Cc2nc3ccc(C(=O)NCc4cc(Br)ccc4OC)cc3o2)cc1 -29.7%, COc1ccc(CCC(=O)NCc2nc3cccnc3n2Cc2ccc(OC)cc2)cc1 2.25%, CCOC(=O)c1c(NC(=O)CS(=O)(=O)c2ccc(Cl)cc2)sc2c1CCCC2 -9.36%, CNC(=O)C1CCN(C(=O)N2CC(C)Oc3ccc(C)cc32)CC1 (stereo unspecified) 4.34%, COc1ccc(-c2cc(C(=O)OCC(=O)c3cccc(OC)c3)c3cccc(Cl)c3n2)cc1 22.3%, CCOC(=O)c1c(NC(=O)c2cc(=O)c3c(C)cc(C)cc3o2)sc2c1CCC2 0%, COc1ccc(NC(=O)C2CCN(c3nc(-c4ccc(OC)c(OC)c4)no3)CC2)cc1Cl -9.17%, COc1ccccc1N(C)C(=O)Cn1c(=O)oc2cc(S(=O)(=O)N3CCCC3)ccc21 -7.75%, O=C(O)CCNC(=O)c1ccc(N=Nc2ccc(O)c(C(=O)O)c2)cc1, Cc1nn(C)c2c1c(C(F)(F)F)cc(=O)n2C(C)C(=O)N1CCN(c2ccccc2)CC1 (stereo unspecified) -17%, CCOC(=O)c1c(C)[nH]c(C)c1S(=O)(=O)N1CCN(c2ccccc2OC)CC1 -11.4%, COc1ccc(Cl)cc1NC(=O)CSc1nc2ccccc2nc1N1CCCCC1 -16%, CC(C)(OCc1nn(Cc2ccccc2)c2ccccc12)C(=O)O 9.82%, COc1cc(/C=C/c2nc(C#N)c(NC(C)c3ccccc3)o2)cc(OC)c1OC (stereo unspecified) -29.5%, COc1cc(NCc2ccc3nc(N)nc(N)c3c2C)cc(OC)c1OC, CN(Cc1ccccc1)C(=O)c1cc2c(s1)-c1ccc(Cl)cc1SC2 5.01%, CCOc1ccc(CNC(=O)Cn2c(=O)c3cccn3c3ccc(F)cc32)cc1OC -1.55%, O=C(CCCCn1c(=O)c2ccccc2n(CC(=O)Nc2cccc(F)c2)c1=O)NCc1ccccc1Cl -2.51%, Cc1ccc(CNC(=O)Cn2c(=O)n(-c3ccccc3)c(=O)c3c2c2cc(C)ccc2n3C)cc1 -12.1%, CCCCN(C)CCNC(=O)Cn1ncc2c([nH]c3ccccc32)c1=O -4.88%, Cc1ccc(NC(=O)CCSc2nc(-c3ccc4c(c3)OCO4)cc(C(F)(F)F)n2)cc1 -7.58%, CCOC(=O)CCN(c1ccccc1)S(=O)(=O)c1ccc2[nH]c(=O)ccc2c1 -36.4%, CCc1ccc(Oc2nc3c(C)cccn3c(=O)c2/C=C(\C#N)c2nc3ccccc3s2)cc1 -1.3%, O=C(c1ccc(Cl)cc1)n1nc(-c2ccco2)nc1NCc1cccs1 5.71%, CCCN1CCCC[C@H]1C(=O)Nc1c(C)cccc1C 6.88%, Cc1ccc(-n2ncc3c(N(CCO)Cc4ccccc4)ncnc32)cc1 8.62%, COc1ccc(CCCc2nnc(SCC(=O)Nc3ccccc3F)o2)cc1C -12.2% [at 11.5 µM], COc1cc(C(=O)NCc2ccc(OCCN(C)C)cc2)cc(OC)c1OC 6.93%, COc1cccc(N(Cc2nnc3n2CCCCC3)C(=O)Nc2cccc(Cl)c2)c1 -13.8%, CCOCCCNC(=O)CN1C(=O)c2c(c3ccccc3n2C)C1c1ccc(OC)cc1 (stereo unspecified) -8.22%, O=C(Cc1csc2nc(-c3ccccc3)cn12)NCc1ccc(F)cc1 -26.4%, CCOc1ccccc1NC(=O)N1CCCn2nc(C)cc21 -7.94%, Cc1ccc(NC(=O)CCc2c(C)nn(-c3ccc(N4CCOCC4)nn3)c2C)cc1F 9.82%, CCOC(=O)c1c(S(=O)(=O)N2CCCC(C(=O)Nc3ncccc3C)C2)c(C)n(C)c1C (stereo unspecified) -2.59%, O=C(OCc1ccccc1Cl)c1ccc(-c2nnn(Cc3ccccc3Cl)n2)cc1 5.1%, COc1ccc(Cn2ccc3nc(C)c(C(=O)Nc4ccc(OC)cc4OC)cc3c2=O)cc1 2.4%, Cc1ccc(NC(=O)Cn2c(=O)n(CCc3ccccc3)c(=O)c3c4c(sc32)CCCC4)cc1C -0.892%, Cc1cc(C)c(S(=O)(=O)Nc2cccc(-c3cn4ccccc4n3)c2)c(C)c1 -5.72%, COC(=O)c1c(SCC(=O)Nc2ccccc2OC)[nH]c2ccccc2c1=O -11.8%, Cc1ccc(N2CC(NC(=O)/C=C\c3ccc4c(c3)OCO4)CC2=O)cc1 (stereo unspecified) -37.7%, O=C(C1CC1)N1CCc2cc(Br)cc(S(=O)(=O)N3CCN(c4ccccc4F)CC3)c21 -2.88%, O=C(/C=C/c1ccco1)Nc1ccc(Cl)c(-c2nc3cc(Cl)ccc3o2)c1 -27.1%, Cc1ccc(NC(=O)C2CCN(c3nn4c(=O)cc(C)nc4s3)CC2)cc1 -13.1%, Cc1c(Cl)cccc1NC(=O)CSc1cc(-c2ccccc2)ncn1 -3.17%, CC(C)n1c(=O)c2oc3ccccc3c2n(Cc2ccccc2F)c1=O -19.7%, CCOC(=O)c1cccc(NC(=O)CCNS(=O)(=O)c2cccc3nonc23)c1 -14.4%

Source: PubChem BioAssay AID1508623 (National Center for Advancing Translational Sciences (NCATS), 2021)
